Out of some 350,000 compounds screened, about 31,000 (8.9%) were called active. The shares of active, inactive and inconclusive entries below differ from those in the screen. Calls come from the whole dose curve; as a rule, active = well fitted inhibition curve with a large enough effect; inconclusive = small, poorly fitted or top-dose-only effect; inactive = no such curve, though single readings can be large or run the other way. Potencies beside an inconclusive call are fits to weak or partial responses and may not hold up. Where a SMILES comes first, the peptide text is derived from it. The star is where a group is joined. Boc = CC(C)(C)OC(=O)*
Each compound was assayed against Histone-lysine N-methyltransferase EHMT2 (Homo sapiens) (UniProt Q96KQ7) (assay: qHTS Assay for Inhibitors of Histone Lysine Methyltransferase G9a). Details: G9a H3K9 monomethylation, AlphaScreen, 2 h; activity, negative = inhibition: at 59 µM (top of the series) unless noted.
UniProt Q96KQ7, sequence (Q96KQ7 whole entry, looked up): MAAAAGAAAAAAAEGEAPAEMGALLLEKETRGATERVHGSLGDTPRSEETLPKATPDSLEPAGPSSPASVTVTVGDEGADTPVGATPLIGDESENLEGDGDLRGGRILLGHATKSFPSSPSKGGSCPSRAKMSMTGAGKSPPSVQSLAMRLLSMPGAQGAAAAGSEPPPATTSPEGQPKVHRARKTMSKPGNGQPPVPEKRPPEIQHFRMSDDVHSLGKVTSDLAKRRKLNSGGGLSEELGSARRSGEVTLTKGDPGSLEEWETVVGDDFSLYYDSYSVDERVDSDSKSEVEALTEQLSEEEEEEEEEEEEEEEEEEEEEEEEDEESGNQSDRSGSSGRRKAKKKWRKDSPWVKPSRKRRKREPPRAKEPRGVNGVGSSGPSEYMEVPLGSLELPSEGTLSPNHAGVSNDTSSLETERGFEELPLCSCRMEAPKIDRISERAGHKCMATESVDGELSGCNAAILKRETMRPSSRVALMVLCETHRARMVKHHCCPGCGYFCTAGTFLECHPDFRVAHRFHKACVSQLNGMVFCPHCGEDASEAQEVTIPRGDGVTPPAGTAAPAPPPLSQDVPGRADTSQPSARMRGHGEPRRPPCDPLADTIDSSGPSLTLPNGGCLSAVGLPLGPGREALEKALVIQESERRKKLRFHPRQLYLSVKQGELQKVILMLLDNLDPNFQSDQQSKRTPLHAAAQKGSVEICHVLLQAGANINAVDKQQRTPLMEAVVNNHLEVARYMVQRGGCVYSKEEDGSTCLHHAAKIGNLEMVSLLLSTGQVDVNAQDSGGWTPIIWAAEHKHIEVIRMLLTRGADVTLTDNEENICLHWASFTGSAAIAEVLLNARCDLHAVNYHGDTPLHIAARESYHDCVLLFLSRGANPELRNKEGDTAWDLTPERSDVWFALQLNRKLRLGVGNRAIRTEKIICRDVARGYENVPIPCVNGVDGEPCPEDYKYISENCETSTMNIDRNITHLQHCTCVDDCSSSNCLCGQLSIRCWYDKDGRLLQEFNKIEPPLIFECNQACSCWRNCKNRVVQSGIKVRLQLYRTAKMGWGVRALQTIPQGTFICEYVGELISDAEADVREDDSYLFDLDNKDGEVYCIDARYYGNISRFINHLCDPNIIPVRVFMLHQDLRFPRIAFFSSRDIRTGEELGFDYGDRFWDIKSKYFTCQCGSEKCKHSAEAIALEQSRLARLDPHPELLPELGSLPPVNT
How it was run: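 Enzyme 20 nM + cpd, 15 min RT; add b-H3K9 pep 500 nM / SAM 20 uM; 2 h RT; anti-H3K9me1 Ab 0.5 ug/mL + SA donor / anti-rabbit acceptor beads 20 ug/mL each, 10 min; AlphaScreen read.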
Cc1ccc(S(=O)(=O)NC(=O)c2cc(C)n(C3CC3)c2C)cc1 was tested, and the Potency was inconclusive: 35.5 µM [inhibitor, partial curve, poor fit]. With COc1ccc(-c2cc3c(=O)n(CC(=O)NCCN4CCCC4)nc(C)n3n2)cc1 the Potency was “inactive”. COC(=O)c1ccc(CSc2nc(N)cc(N)n2)cc1 was tested, and the Potency was inconclusive: 89.1 µM [inhibitor, partial curve, poor fit]. With O=C(Nc1cnn(Cc2ccc(Cl)cc2Cl)c1)c1noc2c1CCCC2 the Potency was inconclusive: 39.8 µM [inhibitor, single point]. Cc1c(Br)c([N+](=O)[O-])nn1CCCC(=O)Nc1sc2c(c1C#N)CCC2 was tested, and the Potency was inconclusive: 7.94 µM [inhibitor, full curve, poor fit]. In the case of C=CCn1c(SCCN2CCCC2)nc2c([nH]c3ccccc32)c1=O, the Potency is reported as inconclusive: 56.2 µM [inhibitor, partial curve, poor fit]. CCC(C)C(NC(=O)OC(C)(C)C)C(=O)NC(C(=O)NC(C)C(N)=O)C(C)C (stereo not drawn) (Boc-Ile-Val-Ala-NH2; configuration not given here) was tested, and the Potency was inconclusive: 89.1 µM [inhibitor, partial curve, poor fit]. For CSc1cccc(NC(=O)C2CC(=O)N(Cc3ccccc3)C2)c1 (configuration not stated), the Potency was active: 44.7 µM. For O=C(CSc1nn(-c2ccc(F)cc2)c(=S)s1)NC(=O)NCc1ccco1, the Potency was inconclusive: 79.4 µM [inhibitor, partial curve, poor fit]. O=C(Cc1ccccc1)NC1CCS(=O)(=O)C1 (configuration not stated) was tested, and the Potency was “inactive”. CNC(=O)COC(=O)c1ccccc1C(=O)c1ccc(Cl)c([N+](=O)[O-])c1 was tested, and the Potency was “inactive”. COC(=O)CSc1nnc(-c2ccc3c(c2)OCO3)n1C was tested, and the Potency was “inactive”. In the case of COc1ccc(-c2ccc(SCC(=O)c3cccs3)nn2)cc1, the activity, negative = inhibition is reported as inactive: 28.7% [at 12.7 µM]. For COc1cc2c(cc1OC)CN(c1ccc(F)cc1[N+](=O)[O-])CC2, the Potency was active: 35.5 µM. For O=C(NCCc1ccc(Cl)cc1)C1CCN(c2ncccn2)CC1, the Potency was inconclusive: 89.1 µM [inhibitor, partial curve, poor fit]. With Cc1c(Cc2ccccc2)c(=O)oc2c(CN(C)C)c(O)c(Cl)cc12 the Potency was inconclusive: 28.2 µM [inhibitor, single point]. In the case of CC1CCN(CC(C)OC(=O)c2ccco2)CC1 (configuration not stated), the Potency is reported as inconclusive: 89.1 µM [inhibitor, single point]. With COc1ccc(N2CSC3=C(C#N)C(c4cccc(OC)c4OC)CC(=O)N3C2)cc1 (configuration not stated) the Potency was active: 2 µM. For COc1ccc(-n2c(C)nc3c(cnn3-c3ccc(C)c(C)c3)c2=O)cc1Cl, the Potency was “inactive”. For COc1ccc(-c2nc(=S)[nH][nH]2)cc1OC, the Potency was active: 0.562 µM. COC(=O)c1ccc(NC(=O)C(C)Sc2nc(=O)cc(N)n2CCc2ccccc2)cc1 (configuration not stated) was tested, and the Potency was inconclusive: 44.7 µM [inhibitor, partial curve, poor fit]. For CCN1C(=O)C(=O)N(CC(=O)Nc2cc(C)ccc2C)C1=O, the activity, negative = inhibition was inactive: 1.01% [at 2.33 µM]. In the case of Cc1cccc(NC(=O)Nc2ccccn2)c1C, the Potency is reported as “inactive”. In the case of CN(C)C(=O)c1nnc(Cc2ccc(Cl)cc2)o1, the Potency is reported as inconclusive: 89.1 µM [inhibitor, single point]. O=C(COC(=O)CCc1c[nH]c(=O)[nH]1)Nc1cccc(Cl)c1 was tested, and the Potency was active: 39.8 µM. With CC1CN(c2ccc(NC(=O)c3ccco3)cc2C(=O)O)CC(C)O1 (configuration not stated) the Potency was inconclusive: 70.8 µM [inhibitor, single point]. In the case of CS(=O)(=O)NN1C(=O)c2ccccc2NC1c1c[nH]c2ccccc12 (configuration not stated), the Potency is reported as inconclusive: 35.5 µM [inhibitor, partial curve, poor fit]. COc1cccc2cc(C(=O)N3CCN(c4ccc(C)cc4C)CC3)c(=O)oc12 was tested, and the Potency was “inactive”. With NC(=O)c1cc(Cc2ccccc2)sc1NC(=O)c1ccco1 the Potency was inconclusive: 3.55 µM [inhibitor, single point]. COc1ccccc1-c1cc2nc(C)c(CCC(=O)NCc3ccco3)c(C)n2n1 was tested, and the Potency was active: 50.1 µM. With Cc1ccc(S(=O)(=O)N(C)Cc2ccc(C(=O)N/N=C/c3ccc(OC(F)F)cc3)cc2)cc1 the Potency was inconclusive: 0.708 µM [inhibitor, partial curve, poor fit]. In the case of Cc1cc(NC(=O)C(C)N2C(=O)c3ccccc3S2(=O)=O)no1 (configuration not stated), the Potency is reported as inconclusive: 12.6 µM [inhibitor, partial curve, poor fit]. With O=C(Cc1ccccc1)NCC(=O)OCC(=O)c1ccc([N+](=O)[O-])cc1 the Potency was inconclusive: 39.8 µM [inhibitor, single point]. For Cc1ccc(NC(=O)CN2C(=O)CCSc3ccccc32)c(C)c1, the Potency was “inactive”. In the case of CCn1c(SCC(=O)Nc2cc(C)on2)nnc1-c1ccc(C)cc1, the Potency is reported as inconclusive: 6.31 µM [inhibitor, full curve]. In the case of CON(C)c1nc(NCC(C)C)nc(OCC#N)n1, the Potency is reported as “inactive”. In the case of COc1cccc(C(=O)NC(=S)Nc2ccc(N(C)C)cc2)c1, the Potency is reported as active: 10 µM. In the case of CSC(=S)N/N=C(\C)c1ccccc1, the Potency is reported as inconclusive: 22.4 µM [inhibitor, partial curve, poor fit]. Cc1nc2c3ccccc3nc(NNC(=O)CCC(=O)O)n2n1 was tested, and the Potency was inconclusive: 22.4 µM [inhibitor, partial curve, poor fit]. In the case of C/C(=N\NC(=S)NC1CCCCC1)c1ccc(C)o1, the Potency is reported as active: 50.1 µM. With COc1ccc(NS(=O)(=O)c2ccc(N3CCCC3)c(NC(=S)Nc3ccc(SC(F)F)cc3)c2)cc1 the Potency was inconclusive: 7.94 µM [inhibitor, full curve, poor fit]. In the case of O=C(CSc1ncnc2ccccc12)c1cccs1, the Potency is reported as active: 22.4 µM. CN(Cc1cnccn1)C(=O)CC1C(=O)NCCN1Cc1c(F)cccc1Cl (configuration not stated) was tested, and the Potency was inconclusive: 70.8 µM [inhibitor, single point]. With CCCCN(CC)CCCNC(=O)c1ccc(CS(=O)(=O)c2ccccc2C)o1 the Potency was “inactive”. In the case of CN(C)c1ccc(CNC(=O)C2CCN(c3nnc(-n4cccc4)s3)CC2)cc1, the Potency is reported as inconclusive: 7.08 µM [inhibitor, partial curve, poor fit]. In the case of Cc1ccc2c(CC(=O)Nc3nc(C)cs3)coc2c1, the Potency is reported as inconclusive: 89.1 µM [inhibitor, single point]. c1csc(CNc2nc3ccccc3n2CCN2CCOCC2)c1 was tested, and the Potency was inconclusive: 79.4 µM [inhibitor, single point]. With O=C(Cc1c(F)cccc1Cl)NNC(=S)Nc1ccc(S(=O)(=O)Nc2ncccn2)cc1 the Potency was active: 28.2 µM. In the case of CCc1ccc(NC(=S)NC2CCN(Cc3ccccc3)CC2)cc1, the Potency is reported as “inactive”. Cc1cnc(NC(=O)Nc2ccc(Cl)cc2)s1 was tested, and the Potency was active: 50.1 µM. With Cc1cc(C)c(C#N)c(SCSCc2ccccc2)n1 the Potency was “inactive”. For O=C(NNc1ccccc1[N+](=O)[O-])Nc1ccccc1, the Potency was inconclusive: 3.98 µM [inhibitor, partial curve, poor fit]. For Cc1ccc2c(CN3CCN(S(=O)(=O)c4ccc(Cl)cc4)CC3)cc(=O)oc2c1C, the Potency was “inactive”. With Cc1cc(=O)[nH]c(SCC(=O)NCC2CCCCC2)c1C#N the Potency was “inactive”. With CN=C1c2cc3c(Br)c(OC)ccc3n2CCN1C the Potency was inconclusive: 89.1 µM [inhibitor, single point]. For CCN1CCN(CCCN(Cc2ccco2)C(=S)Nc2ccc(C)c(Cl)c2)CC1, the Potency was active: 35.5 µM. For Cc1ccc(C)c(NC(=O)Nc2cc3c(cc2N2CCCCC2)n(C)c(=O)n3C)c1, the Potency was inconclusive: 14.1 µM [inhibitor, partial curve]. In the case of Cc1ccc(N2C(=O)CC(N3CCN(S(=O)(=O)c4ccccc4)CC3)C2=O)c(C)c1 (configuration not stated), the Potency is reported as “inactive”. For CCOC(=O)C1CCN(C(=O)CS(=O)Cc2nc(-c3ccc(C)cc3)oc2C)CC1 (configuration not stated), the Potency was active: 28.2 µM. In the case of Cc1ccc(CSc2nc3cccnc3n2Cc2ccc(C(=O)NC3CC3)cc2)cc1, the Potency is reported as “inactive”. With Fc1ccc(NC(=S)N2N=CCC2c2ccccc2)cc1 (configuration not stated) the Potency was inconclusive: 50.1 µM [inhibitor, partial curve, poor fit]. In the case of Cc1cc(/C=N/NC(=O)c2ccncc2)c(C)n1-c1ccccc1, the Potency is reported as inconclusive: 89.1 µM [inhibitor, single point]. With CN(C)c1cc(N)c2ccccc2n1 (tested in a mixture with another compound) the Potency was inconclusive: 0.141 µM [inhibitor, full curve, poor fit]. With CCOC(=O)c1cnc2c(Cl)c(Cl)ccc2c1N1CCN(C)CC1 the Potency was inconclusive: 44.7 µM [inhibitor, partial curve]. In the case of CN(c1ccc(Br)cc1)S(=O)(=O)c1ccc2[nH]cc(C(=O)NCCN3CCOCC3)c(=O)c2c1, the Potency is reported as inconclusive: 56.2 µM [inhibitor, single point]. With COCC(C)n1c(COc2ccccc2F)nnc1SCC(=O)Nc1oc(C)c2c(C)n[nH]c(=O)c12 (configuration not stated) the Potency was active: 10 µM. COc1ccc(N2C(=O)/C(=C3/C=CC=CN3C)SC2=S)cc1 was tested, and the Potency was active: 44.7 µM. With O=C(NCc1ccccc1)c1ccc(=O)oc1 the Potency was inconclusive: 50.1 µM [inhibitor, partial curve, poor fit]. In the case of COCCn1c(SC(C)C(=O)NC2CC2)nnc1-c1cccc(C)c1 (configuration not stated), the Potency is reported as active: 28.2 µM. In the case of Cc1ccc(S(=O)(=O)n2[nH]c(=O)cc2N)cc1, the activity, negative = inhibition is reported as inconclusive: -67.2% [inhibitor]. In the case of Cc1ccc(NC(=O)Cn2cnc3c(oc4ccccc43)c2=O)cc1Cl, the Potency is reported as inconclusive: 2.82 µM [inhibitor, full curve]. For COc1ccc(N2CCOCC2)c(NC(=O)c2ccc(Br)o2)c1, the Potency was inconclusive: 89.1 µM [inhibitor, single point].
% is set by controls: 0 for no effect and ±100 for the full control effect; potency is the fitted concentration of half-maximal effect; tags give direction and shape of the fitted curve.
Note: nearly all actives have a fitted effect of over 75% in size.
